# “And” between values parts separate entries of the source, which are not always exact repeats. Identical values can stand only once. The whole screen tested about 310,000 compounds, of which about 18,000 (5.8%) were called active. Inconclusive means that the source gave no clear call. Such entries were picked first, then a sample of the others. Calls come from the whole dose curve; as a rule, active = well fitted inhibition curve with a large enough effect; inconclusive = small, poorly fitted or top-dose-only effect, or another doubt; inactive = no such curve, though single readings can be large or run the other way. Potencies of inconclusive entries are doubtful fits and often do not repeat.
# Assay: Primary qHTS for delayed death inhibitors of the malarial parasite plastid, 48 hour incubation
# Settings: P. falciparum luciferase growth in erythrocytes; series mostly up to 28.7 µM; activity change, negative = inhibition: at the top concentration
# Summary of the method: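 Firefly luciferase activity from engineered P. falciparum reports growth; inhibitors lower the luminescent signal. Cultures contained 2% hematocrit erythrocytes at 0.1% final parasitemia.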
# % is set by controls: 0 for no effect and ±100 for the full control effect; potency is the fitted concentration of half-maximal effect; tags give direction and shape of the fitted curve.
SMILES,Potency,"activity change, negative = inhibition"
COc1cccc2cc(-c3cc(=O)oc4cc(C)c(O)cc34)oc12,"inconclusive: 18.5 µM [inhibitor, single point]",–
NCC/C=C1/c2ccccc2CSc2ccccc21,"inconclusive: 10.4 µM [inhibitor, single point]",–
COc1ccc(C(=O)NC(C)CCc2ccccc2)c(OC)c1 (centres undefined),–,inactive: -23.8% [at 0.00184 µM]
Fc1ccc(CN(Cc2ccccc2)C(c2cccs2)c2nnnn2C2CCCCC2)cc1 (centres undefined),"inconclusive: 1.85 µM [inhibitor, full curve]",–
CC1CC(C)CN(c2ccc([N+](=O)[O-])nc2)C1 (centres undefined),"inconclusive: 10.4 µM [inhibitor, partial curve, poor fit]",–
Cc1nn2c(N3CCN(C(=O)c4ccco4)CC3)cc(C(C)(C)C)nc2c1-c1ccccc1,"inconclusive: 10.4 µM [inhibitor, partial curve]",–
CCN(CC)c1ccc(/C=N/Nc2nc(C)cc(=O)[nH]2)c(O)c1,active: 1.85 µM,–
CC1=C(C(=O)Nc2nc3ccccc3s2)C(c2ccco2)C(C#N)=C(SCC(=O)NC2CCCCC2)N1 (centres undefined),"inconclusive: 18.5 µM [inhibitor, single point]",–
O=C(NCCc1ccccc1)c1oc2ccccc2c1COc1ccccc1,"inconclusive: 11.7 µM [inhibitor, single point]",–
S=c1[nH]nc(CSc2nc3ccccc3s2)o1,–,inactive: 26.7%
CC(C)(C)c1ccc(C(=O)C=[N+]=[N-])cc1,"inconclusive: 11.7 µM [inhibitor, single point]",–
O=C(Nc1ncccc1O)C1CCN(S(=O)(=O)c2ccc3ccccc3c2)CC1,"inconclusive: 0.233 µM [inhibitor, full curve, poor fit]",–
CN(C)S(=O)(=O)c1ccc(N2CCCC2)c(C(=O)Nc2ccccc2Br)c1,active: 13.1 µM,–
O=C(Cc1ccc(Br)cc1)NC1CCCc2ccccc21 (centres undefined),–,inactive: -10.7%
C=CCN1CC(=O)N2C(C)c3[nH]c4ccccc4c3C[C@H]2C1=O (some centres undefined),–,inactive: 15.4%
COc1ccc(CCN2CC(C(=O)NCc3ccc(F)cc3)CC2=O)cc1OC (centres undefined),–,inactive: 5.64%
CCCn1nc(NC(=O)CC(C)C)c2cc3cccc(C)c3nc21,"inconclusive: 18.5 µM [inhibitor, single point]",–
CCOc1ccc(NC(=O)C(c2ccccn2)N(C(=O)CCl)c2ccc(F)cc2)cc1 (centres undefined),"inconclusive: 18.5 µM [inhibitor, single point]",–
COc1ccc(C(=O)NC(C)c2ccc(-n3ccnc3)cc2)cc1[N+](=O)[O-] (centres undefined),"inconclusive: 13.1 µM [inhibitor, partial curve, poor fit]",–
COc1ccc(CCNC(=O)C2CCCN(c3nc4ccccc4s3)C2)cc1OC (centres undefined),"inconclusive: 14.7 µM [inhibitor, partial curve, poor fit]",–
Cc1ccc(-c2nnn(CC(=O)N(Cc3ccc(F)cc3)C(C(=O)NC3CCCC3)c3ccncc3)n2)o1 (centres undefined),"inconclusive: 18.5 µM [inhibitor, single point]",–
Cc1c2cnn(CC(=O)NCCCN3CC(C)CC(C)C3)c(=O)c2c(C)n1Cc1ccccc1Cl (centres undefined),active: 6.57 µM,–

SMILES,Potency,"activity change, negative = inhibition"
COc1ccc(C2SCC(=O)N2CC23CC4CC(CC(C4)C2)C3)cc1 (centres undefined),"inconclusive: 13.1 µM [inhibitor, partial curve]",–
CCOc1ccc(N2CC(C(=O)Nc3cc(OCC)c(N4CCOCC4)cc3OCC)CC2=O)cc1 (centres undefined),"inconclusive: 11.7 µM [inhibitor, partial curve, poor fit]",–
CCN(CC)CCCNC(=O)c1cc(-c2cccc(Cl)c2)on1,"inconclusive: 18.5 µM [inhibitor, partial curve, poor fit]",–
CN1CCN(c2sc(S(C)(=O)=O)nc2S(=O)(=O)c2ccc(Cl)cc2)CC1,"inconclusive: 9.28 µM [inhibitor, partial curve, poor fit]",–
Cc1ccc(NC(=S)NNC(=O)C2CC2c2ccc(C)cc2)cc1 (centres undefined),"inconclusive: 18.5 µM [inhibitor, single point]",–
CCN(CC)S(=O)(=O)c1ccc2c(c1)nc(CCC(=O)Nc1ccc3c(c1)OCO3)n2CC,"inconclusive: 11.7 µM [inhibitor, partial curve, poor fit]",–
COc1ccc(C)cc1Nc1nc(-c2c[nH]c3ccccc23)cs1,"inconclusive: 4.15 µM [inhibitor, partial curve, poor fit]",–
COc1ccc(-n2c(SCC(=O)Nc3sc4c(c3C#N)CCCC4)nnc2-c2ccccc2OC)cc1,"inconclusive: 16.5 µM [inhibitor, single point]",–
CCCOc1ccc(C2C3=C(Nc4nc(N)[nH]c(=O)c42)c2ccccc2C3=O)cc1 (centres undefined),"inconclusive: 11.7 µM [inhibitor, partial curve, poor fit]",–
CC(=O)Nc1ccc(SCC(=O)N(C)C2CCS(=O)(=O)C2)cc1 (centres undefined),–,inactive: 44.3%
C[C@H](NC(=O)c1[nH]cnc1C(=O)Nc1nccs1)c1ccccc1,"inconclusive: 16.5 µM [inhibitor, single point]",–
COCCNS(=O)(=O)c1ccc2c(c1)oc(=O)c1cc(S(=O)(=O)NCCOC)ccc12,"inconclusive: 18.5 µM [inhibitor, single point]",–
CCOc1cccc(/C=N/NS(=O)(=O)c2ccc(C)c([N+](=O)[O-])c2)c1O,–,inactive: 0%
O=C(O)CC(CC(=O)Nc1ccc2ccccc2n1)c1ccccc1 (centres undefined),–,inactive: 22.5%
COc1ccc(CN2CCNC(=O)C2CC(=O)NCCN2CCCCC2=O)c(F)c1 (centres undefined),–,inactive: 30.8%
COCCN(CC(=O)Nc1cccc(C)c1C)C(=O)Cc1sc(C)nc1-c1ccc(F)cc1,"inconclusive: 10.4 µM [inhibitor, single point]",–
Cc1ccc(NC(=O)CN2C(=O)CCSc3ccc(S(=O)(=O)N4CCCC4)cc32)cc1C,"inconclusive: 13.1 µM [inhibitor, single point]",–
O=C(NC(=S)Nc1cccc(S(=O)(=O)NC2=NCCC2)c1)c1cc(-c2ccco2)nc2ccccc12,"inconclusive: 7.38 µM [inhibitor, partial curve, poor fit]",–
CCCC1Nc2ccc(C(=O)O)cc2C2C=CCC12 (centres undefined),"inconclusive: 0.294 µM [inhibitor, full curve]",–
Fc1cc(F)c(F)c(SCCc2ccncc2)c1F,"inconclusive: 10.4 µM [inhibitor, single point]",–
CC(C)=NOC(=O)c1ccc(-c2ccccc2)cc1,"inconclusive: 0.828 µM [inhibitor, full curve, poor fit]",–
Cc1ccc(NC(=O)CSc2ncn[nH]2)cc1,–,inactive: -1.03%

SMILES,Potency,"activity change, negative = inhibition"
Cc1ccc(/C=N/NC(=O)Cc2ccc(Cl)cc2)c(O)c1,"inconclusive: 18.5 µM [inhibitor, single point]",–
O=C(c1ccc(COc2ccc(Cl)cc2)o1)N1CCN(Cc2ccc3c(c2)OCO3)CC1,–,inactive: 0.337%
CCOC(=O)C1CCN(C(=O)Nc2ccc3snnc3c2)CC1,"inconclusive: 11.7 µM [inhibitor, single point]",–
Cc1cc(SCC(=O)Nc2ccccc2)n2ncc(-c3ccccc3)c2n1,"inconclusive: 18.5 µM [inhibitor, single point]",–
COc1ccc(C2=NOC(C(=O)N3CCCCCC3)C2)cc1OC (centres undefined),–,inactive: -7%
COCCn1nnnc1C(C(C)C)N(Cc1cccnc1)Cc1cc2cc(OC)ccc2[nH]c1=O (centres undefined),"inconclusive: 9.28 µM [inhibitor, partial curve]",–
CCOC(=O)C1=C(O)/C(=C\c2ccc(OC)c(OC)c2)N=C1C,"inconclusive: 6.57 µM [inhibitor, partial curve]",–
Cc1ccc(C(=O)N2CCC3(CC2)Oc2ccc(Cl)cc2C(=O)C32CC(c3ccccc3)=NO2)s1 (centres undefined),"inconclusive: 9.28 µM [inhibitor, partial curve]",–
O=C(C[n+]1cc(-c2ccc(F)cc2)n2c1CCC2)N1c2ccccc2Sc2ccccc21,active: 13.1 µM,–
COc1cc(C(C[N+](=O)[O-])c2c(C)cc3ccccn23)ccc1O (centres undefined),"inconclusive: 16.5 µM [inhibitor, partial curve, poor fit]",–
CN(C[C@H](Cc1ccccc1)N(C[C@H](Cc1ccccc1)N(CC1(c2ccccc2)CC1)N=O)N=O)N=O,"inconclusive: 2.33 µM [inhibitor, full curve, poor fit]",–
COc1ccc(CN2C(=O)c3ccccc3C2C(=O)NCCc2ccccc2)c(OC)c1 (centres undefined),"inconclusive: 18.5 µM [inhibitor, single point]",–
C=CCn1c(CNc2ccccc2)nnc1SCC(=O)N/N=C/c1ccccc1O,"inconclusive: 18.5 µM [inhibitor, single point]",–
COCCN=C1N[C@@H](c2ccc(Br)cc2)C(C(=O)OC)=C(C)N1Cc1ccccc1,"inactive and inconclusive: 5.22 µM [inhibitor, partial curve, poor fit]",–
COc1ccc(C(=O)Oc2cc(/C=N/NS(=O)(=O)c3ccc(C)cc3)ccc2OC)cc1,–,inactive: -2.4%
OCCC1CN(Cc2ccsc2)CCN1C1CCCC1 (centres undefined),–,inactive: 28.2%
CSCC[C@H](NC(=O)OC(C)(C)C)c1nnc(SCc2cccc(F)c2)o1,"inconclusive: 11.7 µM [inhibitor, partial curve]",–
S=c1[nH]ncn1/N=C/c1cccs1,"inconclusive: 18.5 µM [inhibitor, single point]",–
Cc1ccc(CS(=O)(=O)Cc2ccc(C(=O)NCc3ccccn3)o2)cc1,"inconclusive: 10.4 µM [inhibitor, single point]",–
O=C(CN1CCN(c2ccccc2)CC1)Nc1ccccc1Sc1ccccc1,"inconclusive: 10.4 µM [inhibitor, single point]",–

# Reference: PubChem BioAssay AID504832 (National Center for Advancing Translational Sciences (NCATS), 2011)
